Reference: PubChem BioAssay AID360 (National Center for Advancing Translational Sciences (NCATS), 2006)
In all, about 48,000 compounds went through this assay and about 550 (1.1%) were called active. Not shown: some 4% with an inconclusive outcome. Rule as the data show it: active = potency below about 15 µM; inconclusive = mostly about 16 µM to 33 µM; inactive = weaker than that. The list shows a part of the results.

Each compound was assayed against Lysosomal acid glucosylceramidase (Homo sapiens) (UniProt P04062) (assay: Glucocerebrosidase). Settings: purified enzyme, resorufin glucoside fluorescence (screen aimed at inhibitors), 20 min; series mostly up to 77 µM.
How it was run: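 Compounds titrated against 0.2 nM normal enzyme, 30 uM resorufin beta-D-glucopyranoside substrate, citrate/phosphate buffer with taurocholate and tween-20, pH 5.9. Reaction ran 20 min at room temperature; fluorescence (Ex 548/Em 600) gave AC50.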
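Also: the screen sought inhibitors.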
Potency is read from the fitted curve at half-maximal effect.

Chain of UniProt P04062 (P04062 whole entry, looked up): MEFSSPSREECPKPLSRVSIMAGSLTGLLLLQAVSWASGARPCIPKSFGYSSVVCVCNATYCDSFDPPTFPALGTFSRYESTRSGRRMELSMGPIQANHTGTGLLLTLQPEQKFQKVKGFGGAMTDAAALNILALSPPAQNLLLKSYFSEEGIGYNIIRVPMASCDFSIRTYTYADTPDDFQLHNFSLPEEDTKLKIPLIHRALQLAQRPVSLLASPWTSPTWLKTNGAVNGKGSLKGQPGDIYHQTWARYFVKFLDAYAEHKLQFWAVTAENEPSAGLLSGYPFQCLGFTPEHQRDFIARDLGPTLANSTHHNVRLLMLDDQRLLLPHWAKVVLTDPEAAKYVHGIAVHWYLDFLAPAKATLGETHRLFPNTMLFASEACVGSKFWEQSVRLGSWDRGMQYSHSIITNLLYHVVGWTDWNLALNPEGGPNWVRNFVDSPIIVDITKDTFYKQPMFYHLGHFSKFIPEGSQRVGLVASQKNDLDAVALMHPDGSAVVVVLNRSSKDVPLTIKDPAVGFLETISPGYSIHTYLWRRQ

Potency, inactive:
COC(=O)c1ccccc1S(=O)(=O)NC(=O)c1ccccc1 > 76.9 µM
O=C(NC1CCCCC1)C(c1cccs1)N(Cc1cccs1)C(=O)c1ccco1 (configuration not stated) > 76.9 µM
COc1ccc(-c2cc(C(F)(F)F)n3nc(C(=O)N4CCOCC4)nc3n2)cc1 > 76.9 µM
Cc1ccc(-n2nc(C)c3c2OC(N)=C(C#N)C3c2cccs2)cc1 (configuration not stated) > 76.9 µM
Nc1nc(CN2CCOCC2)cs1 > 76.9 µM
O=S(=O)(c1ccc(S(=O)(=O)N2CCN(Cc3ccccc3)CC2)cc1)N1CCOCC1 > 76.9 µM
Cc1nc2c(C(=O)NCc3ccccc3)c[nH]n2c(=O)c1Cl > 76.9 µM
CC(=O)c1ccc(Oc2cc(C)nc(-n3nc(C)cc3C)n2)cc1 > 76.9 µM
Cc1cc(=O)n(CC=C(Cl)Cl)c2ccccc12 > 76.9 µM
CCOc1cc(N2CCOCC2)c(OCC)cc1NC(=O)COc1cccc2cccnc12 > 76.9 µM
COC(=O)C1=C(C)OC(N)=C(C#N)C1c1c(C)nn(-c2ccccc2)c1Cl (configuration not stated) > 76.9 µM
Cc1ccc(=O)n(C(C(=O)NCc2ccco2)C(=O)c2ccc(F)cc2)c1 (configuration not stated) > 76.9 µM
Cc1ncc(CO)c2c1OC(C)(C)OC2 > 76.9 µM
O=c1n(-c2cccc(Cl)c2)c(=O)n2n1CCC2 > 76.9 µM
CSc1nc2cc(S(=O)(=O)N3CCOCC3)ccc2s1 > 76.9 µM
COc1ccc(Nc2nc3ccccc3c(=O)s2)c(OC)c1 > 76.9 µM
Cc1cccc(C)c1NC(=O)CSc1nnc([C@H](C)NC(=O)OC(C)(C)C)o1 > 76.9 µM
OC(COc1ccc2ccccc2c1)CN1CCOCC1 (configuration not stated) > 76.9 µM
CCOC(=O)c1cc2oc(C(c3nnnn3C3CCCCC3)N3CCOCC3)cc2[nH]1 (configuration not stated) > 76.9 µM
CCN(C(=O)CSc1nc2nc(C)cc(C)n2n1)c1ccccc1 > 76.9 µM
O=C(O)c1ccc(CSc2n[nH]c(-c3ccco3)n2)cc1 > 76.9 µM
O=C(CCC1CCCCC1)Nc1c2c(nn1-c1ccc(F)cc1)CS(=O)C2 (configuration not stated) > 76.9 µM
CCC(c1nnnn1CCC(C)C)N1CCC(C(N)=O)CC1 (configuration not stated) > 76.9 µM
Nc1cc(=O)nc(SCC(=O)NC2CCCCC2)n1-c1ccccc1 > 76.9 µM
COc1ccc(N2CCN(C(=O)c3ccc(OCC4CCCO4)cc3)CC2)cc1 (configuration not stated) > 76.9 µM
CC(C)(C)n1ncc2c(=O)n(CC(=O)Nc3ccc4c(c3)OCCO4)cnc21 > 76.9 µM
COCCNC(=O)c1ccc(N(C)S(=O)(=O)c2ccc(OC)c(OC)c2)cc1 > 76.9 µM
CC(C)N(C(=O)N1CCC(c2nc(-c3ccncc3)no2)CC1)C(C)C > 76.9 µM
Cn1c(SCC(=O)N2c3ccccc3Sc3ccccc32)nnc1-c1ccco1 > 76.9 µM
CCOc1ccc2nc(NCCO)[nH]c2c1
COCCOC(=O)C1=C(C)NC(=O)N(C(C)=O)C1c1ccc(Cl)cc1 (configuration not stated) > 76.9 µM
Cc1ccc(Cn2nnc3c(=O)n(CC(=O)OCc4ccccc4)cnc32)cc1 > 76.9 µM
Cc1ccc(N2CC(C(=O)NCCc3ccc(S(N)(=O)=O)cc3)CC2=O)cc1 (configuration not stated) > 76.9 µM
N#CC1=C(N)N(c2ccc(Oc3ccccc3)cc2)C(=O)C1 > 76.9 µM
OC1(c2ccc3c(c2)OCO3)CCN(Cc2ccccn2)CC1 > 76.9 µM
Cc1ccc(Cn2ccc(NC(=O)c3cc(-c4ccc(F)cc4)on3)n2)cc1 > 76.9 µM
Cc1nc2c(c(=O)n1Cc1ccccc1Cl)c1nc3ccccc3nc1n2Cc1ccco1 > 76.9 µM
COc1ccccc1NC(=O)C1=C(C)Nc2nc(CCCO)nn2C1c1ccc2c(c1)OCO2 (configuration not stated) > 76.9 µM
O=C(CCNc1ccccc1)c1ccc2c(c1)OCO2 > 76.9 µM
CC1CCCC(NC(=O)CSc2nccn2C)C1C (configuration not stated) > 76.9 µM
Cc1ccc(S(=O)(=O)NCCSc2nnnn2-c2cc(C)ccc2C)cc1 > 76.9 µM
CC(=O)Nc1cc2c(cc1NC(=O)c1cnccn1)OCCO2 > 76.9 µM
Cn1c(N2CCCCC2)nc2c1c(=O)[nH]c(=O)n2C > 76.9 µM
Cc1ccc(OCC(=O)Nc2ccc(N(C)C)cc2)cc1 > 76.9 µM
O=C(Cc1ccccc1)Nc1nc2ccccc2[nH]1 > 76.9 µM
COc1cccc(-n2nnc3c(=O)n(CC(=O)N4CCCCC4)cnc32)c1 > 76.9 µM
CC(C)Cn1cc(C(=O)N2CCOCC2)c2c3ccccc3n(C)c2c1=O > 76.9 µM
O=S(=O)(NCc1cn2ccsc2n1)c1ccc(Oc2ccccc2)cc1 > 76.9 µM
CN(C)CC(O)COc1cc2ccccc2cc1C(=O)N1CCCCC1 (configuration not stated) > 76.9 µM
Cc1ccc(CNC(=O)CN2C(=O)COc3ccc(C)cc32)cc1 > 76.9 µM
CCCN(CCC)c1nc2ccccc2n2c(C)nnc12 > 76.9 µM
O=C(CCOc1ccccc1)NCc1ccccc1 > 76.9 µM
O=C(NCc1cccs1)C1CCN(S(=O)(=O)N2CCCC2)CC1 > 76.9 µM
Cc1cc(C)c2c(n1)nn1c(N3CCN(c4ccccc4)CC3)cc(C)nc21
COC(=O)c1sc(S(=O)(=O)N2CCN(c3ccccc3)CC2)c(C(=O)OC)c1C > 76.9 µM
O=C(Cc1n[nH]c(=O)c2ccccc12)OCC(=O)c1ccc2c(c1)OCCO2 > 76.9 µM
CCCC(=O)N1CCN(c2ccc(NC(=O)c3ccco3)cc2)CC1 > 76.9 µM
O=C(CN1CCN(Cc2ccccc2Cl)C1=O)N1CCCCCC1 > 76.9 µM
CCc1nnc(NC(=O)C2CCCN2C(=O)Nc2ccccc2OC)s1 (configuration not stated) > 76.9 µM
O=c1c(F)cn(C2CCCO2)c(=O)n1Cc1ccccc1F (configuration not stated) > 76.9 µM
Nc1c(C(=O)NCCN2CCOCC2)c2nc3ccccc3nc2n1-c1cccc(F)c1
CCOC(=O)CC(=O)Nc1cc(Cl)ccc1O > 76.9 µM
c1ccc(OCCCc2nc(-c3ccccn3)no2)cc1 > 76.9 µM
COc1cc(OC)c(C2=NOC(C(=O)Nc3cc(C)nn3-c3ccccc3)C2)cc1Cl (configuration not stated) > 76.9 µM
CCCCN(C(=O)Cn1nnc2ccccc21)C(C(=O)NCc1ccco1)c1ccncc1 (configuration not stated) > 76.9 µM
O=C(c1cccs1)N1CCN(Cc2nc3ccccc3c(=O)[nH]2)CC1 > 76.9 µM
O=C(Nn1cnc2ccccc2c1=O)c1ccccc1Cl > 76.9 µM
COc1ccc(S(=O)(=O)Nc2c(C)ccc3nsnc23)cc1OC > 76.9 µM
CC(=O)c1ccc(NC2c3ncccc3C(=O)N2Cc2ccc(F)cc2)cc1 (configuration not stated) > 76.9 µM
c1ccc(Cn2c(-c3cccs3)nc3nc4ccccc4nc32)cc1 > 76.9 µM
CCOc1c(C#N)c(C#N)c2nc(C)cc(C)n12 > 76.9 µM
O=C(CSc1ncn(-c2ccccc2)n1)NCc1ccccc1 > 76.9 µM
Cc1nnc(SCCn2c(N3CCCCCC3)nc3c2c(=O)[nH]c(=O)n3C)s1 > 76.9 µM
CC(=O)OCc1c(F)c(F)c(-n2nc(C)cc2C)c(F)c1F > 76.9 µM
CC1CC(C)CN(C(=O)C2CCCN(S(=O)(=O)c3cccc4nonc34)C2)C1 (configuration not stated) > 76.9 µM
CCCNS(=O)(=O)c1ccc(OCC(=O)Nc2ccccc2F)cc1 > 76.9 µM
CCOC(=O)C1CCN(S(=O)(=O)c2cccc(-c3csc(C)n3)c2)CC1 > 76.9 µM
CNc1nc(C)c(C#N)c(-c2ccccc2)c1C(C)=O > 76.9 µM
CN1C(=O)c2cccc3c(S(=O)(=O)Nc4ccccn4)ccc1c23 > 76.9 µM
CC1CCc2sc3ncnc(N4CCOCC4)c3c2C1 (configuration not stated) > 76.9 µM
CCOc1ccc(NC(=O)c2nccnc2CO)cc1 > 76.9 µM
O=C(OC1CCOC1=O)c1ccc2ccccc2n1 (configuration not stated) > 76.9 µM
C(=N\n1cnnc1)/c1ccc(N2CCOCC2)s1 > 76.9 µM
COc1cc(-c2nnc(SCC(=O)Nc3cc(C)on3)n2C)cc(OC)c1O > 76.9 µM
COc1ccc(CCNC(=O)CN(C)S(=O)(=O)c2cccs2)cc1OC > 76.9 µM
CC(C)OCCCn1c(=S)[nH]c2ccc(N3CCOCC3)cc2c1=O > 76.9 µM
COC(=O)Cn1nc(-c2ccccc2)c2ccccc21 > 76.9 µM
CCc1nnc(NC(=O)CSc2nnc(-c3ccc(OC)cc3)n2C)s1 > 76.9 µM
COc1cccc(Cn2cccc(NC(=O)NC3CCCCC3)c2=O)c1 > 76.9 µM
O=C(Cc1cccs1)Nn1c(Cc2cccs2)nc2ccccc2c1=O > 76.9 µM
Cn1cccc1C(=O)NC(=O)COC(=O)c1ccccc1Sc1ccccc1C#N > 76.9 µM
Cc1cc(C)nc(SCNC(=O)c2ccccc2)n1 > 76.9 µM
